Measurements published in the supplement of paper PMC4604168 (melanoma cell lines).
The other results are listed elsewhere or left out. Repeats are few or missing, and single values can be far off.

Experiments:
Experiment in all cases: cell count relative to DMSO control; melanoma cells; higher = more viable cells
Conditions in all cases: library dose: standard library concentration; 72 h
[1] = test system: G361
[2] = test system: IPC-298
[3] = test system: IST-MEL1
[4] = test system: LB2518-MEL
[5] = test system: LOXIMVI
[6] = test system: MEL-HO
[7] = test system: MZ2-MEL
[8] = test system: MeWo
[9] = test system: RPMI7951
[10] = test system: RVH-421
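Note: cells treated in 1,536-well plates, then fixed and DAPI-stained, with nuclei counted from automated high-throughput microscope images.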

SMILES	cell count [1] [%]	cell count [2] [%]	cell count [3] [%]	cell count [4] [%]	cell count [5] [%]	cell count [6] [%]	cell count [7] [%]	cell count [8] [%]	cell count [9] [%]	cell count [10] [%]
CN1CCN(c2ccc3nc(-c4c(N)c5c(F)cccc5[nH]c4=O)[nH]c3c2)CC1 [Dovitinib] + Cn1cc(/C=C2\C(=O)Nc3cccnc32)c2ccccc21 [GW441756] (first compound 0.5 µM, partner dose 2 µM)	61.9	70.1	79.4	66.9	96.2	68.8	65.4	62	79.8	97.7
C=CCNC1=C2C[C@@H](C)C[C@H](OC)[C@H](O)[C@@H](C)/C=C(\C)[C@H](OC(N)=O)[C@@H](OC)/C=C\C=C(/C)C(=O)NC(=CC1=O)C2=O [Tanespimycin] + COc1cc(Nc2ncc(F)c(Nc3ccc4c(n3)NC(=O)C(C)(C)O4)n2)cc(OC)c1OC [Tamatinib] (first compound 0.01 µM, partner dose 2 µM)	49.9	85.3	19.5	78.7	6.89	74.1	102	46.2	37.7	85.4
C[C@@H](Oc1cc(-c2cnn(C3CCNCC3)c2)cnc1N)c1c(Cl)ccc(F)c1Cl [Crizotinib] + COc1ccc(-c2ccc3c(N4CCOCC4)nc(N4C[C@@H](C)O[C@@H](C)C4)nc3n2)cc1CO [KU0063794] (first compound 1 µM, partner dose 0.1 µM)	90.4	70.9	99.3	81.7	127	68.1	83.1	65	67	91.5
CN1CCN(c2ccc3nc(-c4c(N)c5c(F)cccc5[nH]c4=O)[nH]c3c2)CC1 [Dovitinib] + Nc1nc(F)nc2c1ncn2[C@@H]1O[C@H](CO)[C@@H](O)[C@@H]1O [fludarabine] (first compound 0.5 µM, partner dose 1 µM)	52.2	54.7	65	67.3	93.1	73.5	56.6	57.8	63	74.6
CN1CCN(c2ccc3nc(-c4c(N)c5c(F)cccc5[nH]c4=O)[nH]c3c2)CC1 [Dovitinib] + Cc1ccc(NC(=O)c2cccc(N(C)C)c2)cc1NC(=O)c1ccc(O)cc1 [ZM336372] (first compound 0.5 µM, partner dose 10 µM)	34.4	53.1	63.2	35.5	68.2	68.3	38.5	38.7	69.5	82.9
C[C@@H](Oc1cc(-c2cnn(C3CCNCC3)c2)cnc1N)c1c(Cl)ccc(F)c1Cl [Crizotinib] + CC(=O)c1c(C)c2cnc(Nc3ccc(N4CCNCC4)cn3)nc2n(C2CCCC2)c1=O [palbociclib] (first compound 1 µM, partner dose 0.2 µM)	65.6	64.7	65.2	59.2	112	78.8	84.9	46.8	53.3	71.8
C=CCNC1=C2C[C@@H](C)C[C@H](OC)[C@H](O)[C@@H](C)/C=C(\C)[C@H](OC(N)=O)[C@@H](OC)/C=C\C=C(/C)C(=O)NC(=CC1=O)C2=O [Tanespimycin] + Cn1c(Nc2ccc(C(F)(F)F)cc2)nc2cc(Oc3ccnc(-c4ncc(C(F)(F)F)[nH]4)c3)ccc21 [CHIR265] (first compound 0.01 µM, partner dose 0.4 µM)	23.6	46.6	51.7	12.2	104	67.7	35.8	65.4	11.3	36.5
C=CCNC1=C2C[C@@H](C)C[C@H](OC)[C@H](O)[C@@H](C)/C=C(\C)[C@H](OC(N)=O)[C@@H](OC)/C=C\C=C(/C)C(=O)NC(=CC1=O)C2=O [Tanespimycin] + Cc1ccc(NC(=O)c2cccc(N(C)C)c2)cc1NC(=O)c1ccc(O)cc1 [ZM336372] (first compound 0.01 µM, partner dose 10 µM)	93.7	107	68.4	93.4	86.8	92.8	110	91.9	27.4	149
CN1CCN(c2ccc3nc(-c4c(N)c5c(F)cccc5[nH]c4=O)[nH]c3c2)CC1 [Dovitinib] + C=CCn1c(=O)c2cnc(Nc3ccc(N4CCN(C)CC4)cc3)nc2n1-c1cccc(C(C)(C)O)n1 [MK1775] (first compound 0.5 µM, partner dose 0.1 µM)	45.2	59.7	51.8	56.4	66	71	57.4	39.8	82.1	10.4
C=CCNC1=C2C[C@@H](C)C[C@H](OC)[C@H](O)[C@@H](C)/C=C(\C)[C@H](OC(N)=O)[C@@H](OC)/C=C\C=C(/C)C(=O)NC(=CC1=O)C2=O [Tanespimycin] + Cn1cncc1[C@@](N)(c1ccc(Cl)cc1)c1ccc2c(c1)c(-c1cccc(Cl)c1)cc(=O)n2C [tipifarnib] (first compound 0.01 µM, partner dose 0.05 µM)	48.8	85.8	43.8	53.6	82.7	81.6	96.1	58.9	16.5	58.1
CNC(=O)c1cc(Oc2ccc(NC(=O)Nc3ccc(Cl)c(C(F)(F)F)c3)cc2)ccn1 [sorafenib] + Nc1nc(F)nc2c1ncn2[C@@H]1O[C@H](CO)[C@@H](O)[C@@H]1O [fludarabine] (first compound 2 µM, partner dose 1 µM)	77.8	66.4	82.4	101	153	85.1	98.9	74.5	49.6	99.9
CNC(=O)c1cc(Oc2ccc(NC(=O)Nc3ccc(Cl)c(C(F)(F)F)c3)cc2)ccn1 [sorafenib] + O=C(Nc1cccc(Cl)c1)Nc1ncc(CCNc2ncnc3ccsc23)s1 [SNS314] (first compound 2 µM, partner dose 0.004 µM)	58.7	74.3	42.1	74.5	76.5	64.1	82.2	61.4	41.2	71.9
CNC(=O)c1cc(Oc2ccc(NC(=O)Nc3ccc(Cl)c(C(F)(F)F)c3)cc2)ccn1 [sorafenib] + CCCCCCCCCCCC1=C(O)C(=O)C=C(O)C1=O [Embelin] (first compound 2 µM, partner dose 6 µM)	66.2	63.3	62.4	79.8	116	64.8	96.7	91	66.6	36.9
CNC(=O)c1cc(Oc2ccc(NC(=O)Nc3ccc(Cl)c(C(F)(F)F)c3)cc2)ccn1 [sorafenib] + CC(C)(C)c1cnc(CSc2cnc(NC(=O)C3CCNCC3)s2)o1 [SNS-032] (first compound 2 µM, partner dose 0.05 µM)	102	91.2	95	69.5	79.4	97.7	90.6	75.8	20.9	97.8
CNC(=O)c1cc(Oc2ccc(NC(=O)Nc3ccc(Cl)c(C(F)(F)F)c3)cc2)ccn1 [sorafenib] + COc1cc(N2CCC(N3CCN(C)CC3)CC2)ccc1Nc1ncc(Cl)c(Nc2ccccc2S(=O)(=O)C(C)C)n1 [NVP-TAE684] (first compound 2 µM, partner dose 0.4 µM)	72.5	70.2	93.3	82.1	98.1	80.2	104	71.4	74.4	99.6
CN1CCN(c2ccc3nc(-c4c(N)c5c(F)cccc5[nH]c4=O)[nH]c3c2)CC1 [Dovitinib] + COc1ccc(Cl)c(Nc2nc3ccccc3nc2NS(=O)(=O)c2cccc(NC(=O)C(C)(C)N)c2)c1 [XL147] (first compound 0.5 µM, partner dose 4 µM)	74.3	72	49.1	53.4	145	69.6	55.1	62.3	80.3	83.6
CNC(=O)c1cc(Oc2ccc(NC(=O)Nc3ccc(Cl)c(C(F)(F)F)c3)cc2)ccn1 [sorafenib] + COC(=O)c1sccc1S(=O)(=O)Nc1ccc(Nc2ccccc2)cc1OC [GSK0660] (first compound 2 µM, partner dose 5 µM)	76.1	69.4	90	90	83.9	83.5	86	82.4	80	83.8
C[C@@H](Oc1cc(-c2cnn(C3CCNCC3)c2)cnc1N)c1c(Cl)ccc(F)c1Cl [Crizotinib] + Cc1ccc(NC(=O)c2cccc(N(C)C)c2)cc1NC(=O)c1ccc(O)cc1 [ZM336372] (first compound 1 µM, partner dose 10 µM)	77.5	85.4	81.2	65	102	89.7	88.4	64.1	55	66.9
CNC(=O)c1cc(Oc2ccc(NC(=O)Nc3ccc(Cl)c(C(F)(F)F)c3)cc2)ccn1 [sorafenib] + CCc1ccc(CCOc2ccc(CC3SC(=O)NC3=O)cc2)nc1 [pioglitazone] (first compound 2 µM, partner dose 10 µM)	75.6	81.2	79.3	91.4	86.8	82.7	104	85.1	93.9	102
C[C@@H](Oc1cc(-c2cnn(C3CCNCC3)c2)cnc1N)c1c(Cl)ccc(F)c1Cl [Crizotinib] + O=C(O)[C@@H]1[O][Sb](=[O])([O][Sb]2(=[O])[O][C@H]([C@H](O)CO)[C@H](O)[C@H](C(=O)O)[O]2)[O][C@H]([C@H](O)CO)[C@@H]1O [stibogluconate] (first compound 1 µM, partner dose 10 µM)	89.9	110	119	83.7	104	96.9	120	75.8	131	22.6
C=CCNC1=C2C[C@@H](C)C[C@H](OC)[C@H](O)[C@@H](C)/C=C(\C)[C@H](OC(N)=O)[C@@H](OC)/C=C\C=C(/C)C(=O)NC(=CC1=O)C2=O [Tanespimycin] + C[C@@H]1CCN(C(=O)CC#N)C[C@@H]1N(C)c1ncnc2[nH]ccc12 [CP690550] (first compound 0.01 µM, partner dose 5 µM)	65	100	76.2	75.8	101	98.8	109	86.6	44.6	75.3
